# Data taken from the supplement of paper PMC7335073.
# Whole data set: some 4,100 sequences, median “relative CpG methylation activity (normalised to average over all NNNCGNNN flanks)” near 0.87, cut for the highest 2% near 2.4. This is one part of the list.
# Target: DNMT3A catalytic domain (mouse) (UniProt O88508)
# Test: relative CpG methylation activity (normalised to average over all NNNCGNNN flanks) (relative (1 = mean)); higher = more methylation of the central CpG
# Settings: system: in vitro, murine catalytic domain; CpG state: hemimethylated substrate pool; residues: 608-908
# Outline: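 Each experiment was done in two independent repeats, using pooled dsDNA substrates with a central CpG flanked by 10 random nucleotides, methylated for 60 min at 37 °C by the murine DNMT3A or DNMT3B catalytic domain with 0.8 mM S-adenosyl-L-methionine in HEPES pH 7.5 buffer. After bisulfite conversion and PCR, the DNA was read by Illumina sequencing. Methylation was averaged per context, defined by three bases on each side of the CpG. Relative methylation activity is each context's average methylation over the mean of all contexts.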
row,Sequence,relative CpG methylation activity
1,GGCCGTTA,0.476
2,TGCCGGAG,0.479
3,TGACGCGG,0.155
4,CCGCGCGA,0.556
5,GGACGCAG,0.28
6,TGACGAGC,1.03
7,GGCCGAAG,0.685
8,AAGCGGCA,0.628
9,GTACGTTA,1.88
10,TGCCGTCC,1.48
11,ACTCGAGG,0.523
12,CTGCGACC,1.64
13,TAGCGAAT,0.229
14,TCCCGCAC,1.26
15,CAGCGGAA,0.593
16,ACCCGGGA,0.789
17,GGTCGGAG,0.106
18,GCACGCCC,2.31
19,GGCCGCTG,0.873
20,CGGCGTTT,0.165
21,GTGCGAAT,0.763
22,AGGCGCTA,0.935

row,Sequence,relative CpG methylation activity
1,CACCGTTA,0.751
2,CTCCGCCG,2.31
3,ACGCGATA,1.01
4,TTACGGCG,1.26
5,AATCGCAG,0.0816
6,GGGCGATA,0.633
7,TGCCGCGG,0.2
8,CTTCGCAT,1.58
9,AAACGACT,0.674
10,GTGCGCTA,1.91
11,GTTCGGGC,0.859
12,GTACGTGA,1.49
13,CGTCGGGT,0.53
14,ATACGGTG,0.775
15,TGACGTCT,1.07
16,ATTCGCCA,1.42
17,CTTCGAGC,1.36
18,CGCCGGGC,0.825
19,TTTCGCTG,1.2
20,ATCCGCCT,2.5
21,CTCCGAGT,1.62
22,TATCGAGA,0.41

row,Sequence,relative CpG methylation activity
1,CTGCGACT,1.28
2,GTACGTCC,2.41
3,TGGCGAAG,0.099
4,ACCCGAAG,0.854
5,GGGCGCCG,1.5
6,TCACGTGT,0.625
7,AATCGCCT,1.61
8,ACCCGCGC,1.28
9,TGTCGTTG,0.786
10,CTGCGTGC,0.932
11,TCCCGCCT,1.94
12,AGGCGCAC,0.982
13,GATCGTAT,0.385
14,CGACGTCG,1.28
15,TTGCGTGG,0.368
16,AGTCGTAT,0.177
17,ATCCGATG,1.26
18,GGGCGGCC,1.61
19,ATCCGCTT,2.13
20,CTCCGCAG,1.21
21,ATACGTGG,0.357
22,TGTCGGGC,0.635

row,Sequence,relative CpG methylation activity
1,AATCGGCG,0.164
2,GCGCGTTT,0.575
3,GTCCGTTA,1.59
4,TAACGTGG,0.025
5,TTCCGGAC,1.58
6,TCGCGAAT,0.484
7,GCACGAAC,1.57
8,GTGCGTGT,0.469
9,GTGCGTTT,1.12
10,TTGCGTAC,1.47
11,GTTCGGTC,1.23
12,CCTCGGAC,1.41
13,ACTCGACG,0.638
14,CTGCGACA,1.34
15,CATCGATG,0.296
16,TTGCGAGG,0.574
17,CCACGGGC,1.41
18,TCTCGTGT,0.225
19,TGCCGCAT,0.85
20,ACACGTTA,1.44
